{
  "source": "paper PMC12136788",
  "binders": {"B1": {"name": "chr15:85746268:85746369:+|3pUTR|ENSG00000170776|msi1|total|mutant (ssRNA)", "RNA": "GGGAGUUCUACAGUCCGACGAUCUGUUUUAUUUAUUGUAUUUGUGUGUUUGUGUUUGUUUUUUUUUAAGGGUGAGCCAGGUCCCGCCCAACAGUCUAAACUAUCCAGUCAAUACCGAGUGAAGUGGCAGCCAGCACUGUUCACCAACAGAGGAUUGAGCAUCA"}, "B2": {"name": "chr17:28327902:28328001:+|3pUTR|ENSG00000109084|msi1_unk|FALSE|overlapping (ssRNA)", "RNA": "GGGAGUUCUACAGUCCGACGAUCUCCCUGUAUCUGAAGUCUAGCAUCUCAAGGCUGAUCUGGAAGUGUGCUAGUAUGCUCCCUAGUGGAUAACUUAAUCUUUUAAUACAGUUCCGUCAUUCCCAUCUUGUUUUCAGAAGAGAACAACAGAGGAUUGAGCAUCA"}, "B3": {"name": "chr20:57651677:57651767:-|3pUTR|ENSG00000124225|msi1_unk|FALSE|overlapping (ssRNA)", "RNA": "GGGAGUUCUACAGUCCGACGAUCGUUGAGCUGUGUCUUGAAGGCAAAAGAAAAAAAAUUUCUACAGUAGUCUUUCUUGUUUCUAGUUGAGCUGCGUGCGUGAAUGCUUAUUUUCUUUUGUUUAUGAUAAUUUCACUUAACUUUCAACAGAGGAUUGAGCAUCA"}, "B4": {"name": "chr18:47840682:47840783:-|3pUTR|ENSG00000175387|unk|FALSE|unique (ssRNA)", "RNA": "GGGAGUUCUACAGUCCGACGAUCAUACCGUUUUUCCAAAGGUAUUUUACAAUAUUUCAACAGCAGACCUUCUGCUCUUCGAGUAGUUUGAUUUGGUUUAGUAACCAGAUUGCAUUAUGAAAUGGGCCUUUUGUAAAUGUAAUUCAACAGAGGAUUGAGCAUCA"}, "B5": {"name": "ENSG00000198589:be:win_3651|CDS|ENSG00000198589|bound_else_gene|NA|bound_elsewhere_windowed (ssRNA)", "RNA": "GGGAGUUCUACAGUCCGACGAUCCCUCACUAGAGAAACCAAAUUAAUUAAUGAUUGUCAUGGUAGUGUCUCUGAGGCUUCUUCUGAGCAAAAGAUUGCGAAGUUGGAUGUUUCCAAUGUUGCUACAGAUACUGAGAGGCUGGACAACAGAGGAUUGAGCAUCA"}, "B6": {"name": "chr22:20142972:20143073:+|CDS|ENSG00000099904|msi1|total|mutant (ssRNA)", "RNA": "GGGAGUUCUACAGUCCGACGAUCGGGGAUCAUGUGGCCCUGCAGCCCCUGCGCUCUGAGGGGGGGCCCCCCACGCCCCACCGCCGCAUUUUUGCCCCCCAUGCACUGCCCAACCGCAACGGCAGCCUGUCCUAUGACAGCCUGCAACAGAGGAUUGAGCAUCA"}, "B7": {"name": "chrX:85271413:85271529:+|CDS|ENSG00000147180|unk|FALSE|unique (ssRNA)", "RNA": "GGGAGUUCUACAGUCCGACGAUCUGUGAUAAAGGUUUUCAUCGUCCUUCUGAGCUCAAAAAGCAUAGUGAUAUCCAUAAGGGUAGGAAGAUUCAUCAGUGCAGGCACUGUGACUUUAAAACAUCCGAUCCAUUUAUUCUUAGUCAACAGAGGAUUGAGCAUCA"}, "B8": {"name": "ENSG00000106799:stop:overlap|stop_codon|ENSG00000106799|stop_codon|NA|stop_codon (ssRNA)", "RNA": "GGGAGUUCUACAGUCCGACGAUCGCAAGCUGCUUGAGAGCAGCCUUGUAUUCCCAGCAUCCAUCACAGUGCCUAAUACAUGGUAGAUCCUCAGUAGAUAUUUGUUGAGUCCAUGAGUCUUCAAAAGAACUUAAUUAGGUACAUCAACAGAGGAUUGAGCAUCA"}, "B9": {"name": "chr22:40825413:40825514:-|3pUTR|ENSG00000100380|msi1|FALSE|bound_elsewhere (ssRNA)", "RNA": "GGGAGUUCUACAGUCCGACGAUCGGUAAUACCCACAACAACUGUAGUUUCUUACUUGGCCAAGAGAAUGCUUAUUUAAGUGUUAGACUUCCAUUCUGGCAAAAUCUUGCCUUAUCAGAAGACAUUGGAAAGAGGGAUUCCCUUCAACAGAGGAUUGAGCAUCA"}, "B10": {"name": "chr7:138594284:138594621:-|three_prime_utr|ENSG00000157703|control|control|control (ssRNA)", "RNA": "GGGAGUUCUACAGUCCGACGAUCUCAGAACUGCGGUGCAUUUUUUUAAAACUUGGUUUUACUUCUGUAUGCUACUCGGUAAUUAGUAAAGUGAUUUUUUUUUUAAAGGCAUAUAUGGGAAUGGGGUAGGUAACUGUAUAUUGACAACAGAGGAUUGAGCAUCA"}, "B11": {"name": "chr8:43200960:43201061:+|3pUTR|ENSG00000165102|unk|FALSE|unique (ssRNA)", "RNA": "GGGAGUUCUACAGUCCGACGAUCCAAAUUCUAAGUGUUUUCUCUUUAGGUUUCCCUGGCUUUGUGAAUGGAUCAUGUGUCUCUAGGUAUAAACCUGACAUCAUCUUUCCACCCGGCUUACCUCCACCAGAUCUCCCCAGUUCUCAACAGAGGAUUGAGCAUCA"}, "B12": {"name": "chr7:93208579:93208876:-|CDS|ENSG00000188175|control|control|control (ssRNA)", "RNA": "GGGAGUUCUACAGUCCGACGAUCUGACAAUACUACAUAUAUCAUUAAGCAUGGGCCUCGCUUAGAAGUUGCAUCUGAGAAAGUAGCCCAGAAGACAAUGGACUAUGUGUGCUGUGCUUACAACAACAUAACCGGCAGGCAAGACAACAGAGGAUUGAGCAUCA"}, "B13": {"name": "chr15:89477516:89477653:-|CDS|ENSG00000140519|control|control|control (ssRNA)", "RNA": "GGGAGUUCUACAGUCCGACGAUCCCGGCUGCACAUCCAGGACACAUGUGGCAUUAACAAUCUGCAUGGCAUUCCUGGCAUCAUAGGCGGCAUCGUGGGUGCUGUGACAGCGGCCUCCGCCAGCCUUGAAGUCUAUGGAAAAGACAACAGAGGAUUGAGCAUCA"}, "B14": {"name": "chr17:79086671:79086772:+|3pUTR|ENSG00000167280|msi1|total|mutant (ssRNA)", "RNA": "GGGAGUUCUACAGUCCGACGAUCACCGGCUGCAAGAUGCUGAUGCCGAGAAUGAUGAUUUUCUUUCCUGCAGAUGAAACUAUCCGAAAGGGUCUCCGAUUGUGGCAGGCCGGCUUUGGAGCAGGCGCCGAGACAUUUCUGAGCCAACAGAGGAUUGAGCAUCA"}, "B15": {"name": "chr10:89213657:89213758:-|3pUTR|ENSG00000107798|msi1|FALSE|unique (ssRNA)", "RNA": "GGGAGUUCUACAGUCCGACGAUCUUACAAUACUGUCCGGUGGACAAAAUGACAAUUGAUAUGUUUUUCUGAUAUAAUUACUUUAGCUGCACUAACAGUACAAUGCUUGUUAAUGGUUAAUAUAGGCAGGGCGAAUACUACUUUCAACAGAGGAUUGAGCAUCA"}, "B16": {"name": "chr5:40945159:40945374:+|CDS|ENSG00000112936|unk|total|mutant (ssRNA)", "RNA": "GGGAGUUCUACAGUCCGACGAUCGAAUUUUACAACCGUACUUGGUCUUAUGUAAAACAUACGUCGACAGAACACACAUCAUCCCGUCGGAAGCGCUCCUUUUUCCGAUCUUCAUCAUCUUCUUCACGCAGUUAUACUUCACAUCAACAGAGGAUUGAGCAUCA"}, "B17": {"name": "ENSG00000159164:stop:overlap|stop_codon|ENSG00000159164|stop_codon|NA|stop_codon (ssRNA)", "RNA": "GGGAGUUCUACAGUCCGACGAUCUUGCAUCCUGGAAUGCGCUGGACGUGUUGACUGUUGAACUCUACCCCUCAGACAAGAGGUAGUUGGAAUGUGUUGGAGGCAGGGCAGUGGAUUCAGGGGAGGGGUGGGGUGAGGAAGGAGCAACAGAGGAUUGAGCAUCA"}, "B18": {"name": "chr8:58582127:58582250:+|3pUTR|ENSG00000137575|unk|total|mutant (ssRNA)", "RNA": "GGGAGUUCUACAGUCCGACGAUCUUCAUAUUACUUCCGUUCUACCGCAUACUUGCAUCUUUAACAUGCUAUCACCGUACAUUCCGAAUGAUUGCCUUUGAUUUUUUUUUUAAAUUCUGUGUGUGUGUGUGUAAAAUGCCAAUUCAACAGAGGAUUGAGCAUCA"}, "B19": {"name": "chr16:66721972:66722075:-|3pUTR|ENSG00000135720|unk|FALSE|unique (ssRNA)", "RNA": "GGGAGUUCUACAGUCCGACGAUCUUUUUAAUUCAGUUUUUUAAAAAAACAAAUGUAUUGUGGCUUCCAGUUACCAGGUUGUCUAGGUAAUGACAGUAAACUGACUGUAGAAUGAUAAUUGUGGUAUAGUGACCAAUAGAUGCCCAACAGAGGAUUGAGCAUCA"}, "B20": {"name": "chr4:138171744:138171845:-|3pUTR|ENSG00000151012|msi1|FALSE|unique (ssRNA)", "RNA": "GGGAGUUCUACAGUCCGACGAUCAGGAGUCAGUUAUUUUUAUUCAUAUAUUUUAGCAUAUUCGAACUAAUUUCUAAGAAAUUUAGUUAUAACUCUAUGUAGUUAUAGAAAGUGAAUAUGCAGUUAUUCUAUGAGUCGCACAAUCAACAGAGGAUUGAGCAUCA"}, "B21": {"name": "chr15:44665791:44665971:-|CDS|ENSG00000229474|control|control|control (ssRNA)", "RNA": "GGGAGUUCUACAGUCCGACGAUCGAUCUGUUUGUUCUGGAAUACGUGUAUGUGGGAAGUUGAAUCAUCAGACACUAGCUACAUAGACUAUGUUUACAGGGAUCCAGAGAGUCUGAAGACAUUUCUUAUGCCUUUAUAUAUUGGCAACAGAGGAUUGAGCAUCA"}, "B22": {"name": "chr9:37357341:37357442:+|3pUTR|ENSG00000147905|unk|total|mutant (ssRNA)", "RNA": "GGGAGUUCUACAGUCCGACGAUCAUUAUCUAUGAUUAAAUAAAGUGAGUUUUUGGUUUUGUUUUUUUAAUUUCAGCCAUUCCCCGAGUUACUGAAUAUCCAUGGAGAUCUCAAUUCUCUGUGUCCAACAGGAUAUCCGGUAAGCAACAGAGGAUUGAGCAUCA"}},
  "note": "This is one part of the list.",
  "data": [
    {"biological_target": "MSI1 full-length (mouse, UniProt Q61474 1-362)", "sequence (Q61474 whole entry)": "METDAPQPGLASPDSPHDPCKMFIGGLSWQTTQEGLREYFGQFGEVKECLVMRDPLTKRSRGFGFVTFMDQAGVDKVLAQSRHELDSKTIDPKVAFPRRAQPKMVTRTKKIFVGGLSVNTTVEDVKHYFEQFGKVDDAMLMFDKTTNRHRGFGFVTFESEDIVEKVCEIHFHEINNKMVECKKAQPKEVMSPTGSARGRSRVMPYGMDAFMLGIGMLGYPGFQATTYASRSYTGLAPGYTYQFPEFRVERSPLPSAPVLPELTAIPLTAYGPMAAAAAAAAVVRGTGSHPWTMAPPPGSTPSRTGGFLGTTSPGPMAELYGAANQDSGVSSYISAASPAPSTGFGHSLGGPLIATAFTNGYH", "assay": "nsRBNS (natural sequence RNA bind-n-seq); RBNS binding buffer (assumed for nsRBNS): 25 mM Tris pH 7.5, 150 mM KCl, 3 mM MgCl2, 0.01% Triton X-100, 500 ug/ml BSA, 20 U/ml SUPERase-In, 4 C; UNK is unkempt and MSI1 is Musashi-1; names of the RNAs are library labels; protein concentration not given here; high values mean tight binding", "units": {"binding signal": "enrichment R"}, "values": [
      {"binder": "B1", "binding signal": 7.01},
      {"binder": "B2", "binding signal": 3.52},
      {"binder": "B3", "binding signal": 0.985},
      {"binder": "B4", "binding signal": 1.07},
      {"binder": "B5", "binding signal": 0.605},
      {"binder": "B6", "binding signal": 0.459},
      {"binder": "B7", "binding signal": 2.92},
      {"binder": "B8", "binding signal": 0.606},
      {"binder": "B9", "binding signal": 0.377},
      {"binder": "B10", "binding signal": 3.22},
      {"binder": "B11", "binding signal": 0.438},
      {"binder": "B12", "binding signal": 1.23},
      {"binder": "B13", "binding signal": 0.264},
      {"binder": "B14", "binding signal": 0.303},
      {"binder": "B15", "binding signal": 1.3},
      {"binder": "B16", "binding signal": 0.516},
      {"binder": "B17", "binding signal": 1.98},
      {"binder": "B18", "binding signal": 0.478},
      {"binder": "B19", "binding signal": 9.43},
      {"binder": "B20", "binding signal": 2.19},
      {"binder": "B21", "binding signal": 0.282},
      {"binder": "B22", "binding signal": 0.726}
    ]}
  ]
}
